This is one part of the list.
The sequences below were run on T1, Caupolican (Caup) homeodomain DNA-binding domain (assay: PBM E-score (8-mer, recovered from the published 9-mer minima) (E-score (dimensionless, -0.5 to 0.5)); Drosophila protein; higher = stronger relative binding preference, active = 0.31 or more).
T1 sequence: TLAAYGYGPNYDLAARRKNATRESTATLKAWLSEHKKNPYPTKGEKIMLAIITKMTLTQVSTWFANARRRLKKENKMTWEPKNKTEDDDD
Summary of the method: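 Caup's homeodomain DNA-binding domain (residues 214-303) was produced by in vitro transcription and translation and applied at 100 nM to custom-designed protein binding microarrays. Each value is an enrichment score giving relative binding preference for a short DNA word; higher means stronger. Published 9-mer scores were the minimum of their two constituent 8-mer scores, and the 8-mer values were recovered from those minima. A cutoff of 0.31 marks candidate binding sequences.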
AGAATGAC was tested, and the “PBM E-score” value was inactive: 0.0721.
For ACCTCAGG, the “PBM E-score” value was inactive: -0.132.
With ACTCGCTG the “PBM E-score” value was inactive: -0.0848.
GTTCCAAC was tested, and the “PBM E-score” value was inactive: 0.0551.
ACCAATCG was tested, and the “PBM E-score” value was inactive: 0.0658.
For GTCCGGAC, the “PBM E-score” value was inactive: -0.107.
With CACCCGGC the “PBM E-score” value was inactive: -0.203.
CTCGCCAG was tested, and the “PBM E-score” value was inactive: -0.191.
For TAGTTACA, the “PBM E-score” value was active: 0.311.
With AAGTGAAT the “PBM E-score” value was inactive: 0.127.
CAGTCTTC was tested, and the “PBM E-score” value was inactive: -0.0481.
In the case of CAGAGGCG, the “PBM E-score” value is reported as inactive: -0.091.
In the case of GAGCGCAC, the “PBM E-score” value is reported as inactive: -0.178.
With GTCATATA the “PBM E-score” value was inactive: 0.203.
ATCAGGCC was tested, and the “PBM E-score” value was inactive: -0.0404.
In the case of GAATTTCC, the “PBM E-score” value is reported as inactive: 0.0654.
For AACTAGAC, the “PBM E-score” value was inactive: 0.158.
In the case of CGTATACG, the “PBM E-score” value is reported as inactive: 0.0954.
In the case of AGCTCGAG, the “PBM E-score” value is reported as inactive: -0.138.
In the case of TGCCGCCA, the “PBM E-score” value is reported as inactive: -0.161.
GAAGGAAC was tested, and the “PBM E-score” value was inactive: -0.0306.
With AATCAGAT the “PBM E-score” value was inactive: 0.177.
In the case of AAGTCGGA, the “PBM E-score” value is reported as inactive: -0.0333.
For GTGAACTA, the “PBM E-score” value was inactive: 0.0654.
For CTCTCGAA, the “PBM E-score” value was inactive: -0.0153.
ACCTACGG was tested, and the “PBM E-score” value was inactive: -0.144.
ACAAACTC was tested, and the “PBM E-score” value was inactive: 0.114.
In the case of AAAAATAC, the “PBM E-score” value is reported as inactive: 0.101.
For GGATATGA, the “PBM E-score” value was inactive: 0.0498.
In the case of CGGAAGAG, the “PBM E-score” value is reported as inactive: -0.148.
In the case of GCTGAGCA, the “PBM E-score” value is reported as inactive: -0.0568.
GAGCGACA was tested, and the “PBM E-score” value was inactive: 0.246.
In the case of CTTTAAGA, the “PBM E-score” value is reported as inactive: -0.00042.
GAAAGTGC was tested, and the “PBM E-score” value was inactive: -0.174.
CACAGTAA was tested, and the “PBM E-score” value was inactive: 0.122.
In the case of GTTAACCA, the “PBM E-score” value is reported as inactive: 0.112.
In the case of GCCCGCCC, the “PBM E-score” value is reported as inactive: -0.288.
ATTATTCC was tested, and the “PBM E-score” value was inactive: 0.0933.
With ACTCACAT the “PBM E-score” value was inactive: 0.144.
GTGCAAGA was tested, and the “PBM E-score” value was inactive: 0.019.
In the case of ATGTGACG, the “PBM E-score” value is reported as inactive: 0.0877.
For ACGCAGAC, the “PBM E-score” value was inactive: -0.0561.
With ATGGGTGG the “PBM E-score” value was inactive: -0.165.
For ACCGTTCA, the “PBM E-score” value was inactive: 0.0485.
In the case of ATAAAGGA, the “PBM E-score” value is reported as inactive: 0.00587.
With ACATTTGG the “PBM E-score” value was inactive: 0.0197.
GTAGCTGA was tested, and the “PBM E-score” value was inactive: -0.033.
GCACAGAC was tested, and the “PBM E-score” value was inactive: -0.00079.
For CGAAGGTA, the “PBM E-score” value was inactive: 0.00636.
AGACACAT was tested, and the “PBM E-score” value was inactive: 0.213.
With CCCCGTCG the “PBM E-score” value was inactive: -0.29.
With CTCGATAA the “PBM E-score” value was inactive: -0.0103.
With AAAAGAAC the “PBM E-score” value was inactive: 0.0872.
For AAAATAAT, the “PBM E-score” value was inactive: 0.0993.
For ACGGCATG, the “PBM E-score” value was inactive: 0.0642.
For AGACACAG, the “PBM E-score” value was inactive: 0.18.
With CACCACGA the “PBM E-score” value was inactive: -0.00261.
CAGTATGA was tested, and the “PBM E-score” value was inactive: 0.127.
In the case of CGGTATGC, the “PBM E-score” value is reported as inactive: -0.147.
In the case of GGAAGCTA, the “PBM E-score” value is reported as inactive: -0.154.
In the case of CTGGTTGA, the “PBM E-score” value is reported as inactive: -0.0348.
In the case of GACCTGTA, the “PBM E-score” value is reported as inactive: 0.123.
CCAATAAA was tested, and the “PBM E-score” value was inactive: 0.0561.
For AGTCCGGA, the “PBM E-score” value was inactive: -0.0664.
For AGTAGCGA, the “PBM E-score” value was inactive: 0.0272.
With AGTAGAAT the “PBM E-score” value was inactive: 0.127.
In the case of CTGGTCTA, the “PBM E-score” value is reported as inactive: -0.0246.
For GCCGACTA, the “PBM E-score” value was inactive: -0.00422.
In the case of CGACATCC, the “PBM E-score” value is reported as inactive: 0.134.
In the case of ACGTTCTA, the “PBM E-score” value is reported as inactive: 0.0186.
With AAGGCAAA the “PBM E-score” value was inactive: 0.0632.
AGATTTCC was tested, and the “PBM E-score” value was inactive: -0.0416.
For CAACGGGA, the “PBM E-score” value was inactive: -0.0153.
For ACCGCTTG, the “PBM E-score” value was inactive: 0.0304.
In the case of GTGGTACA, the “PBM E-score” value is reported as inactive: 0.277.
In the case of CGCGTGAC, the “PBM E-score” value is reported as inactive: -0.0427.
With AACAGGAG the “PBM E-score” value was inactive: 0.148.
CTAAAATC was tested, and the “PBM E-score” value was inactive: -0.0137.
TGAAATAA was tested, and the “PBM E-score” value was ≥ 0.169.
In the case of GCTTTTAA, the “PBM E-score” value is reported as inactive: -0.0675.
With TACGAGAA the “PBM E-score” value was inactive: 0.0405.
With CCGCATCG the “PBM E-score” value was inactive: -0.195.
With TCGCGAAA the “PBM E-score” value was inactive: -0.0342.
In the case of AGACGAGC, the “PBM E-score” value is reported as inactive: -0.114.
GCCTCCAA was tested, and the “PBM E-score” value was inactive: -0.121.
With CCATGACG the “PBM E-score” value was inactive: -0.0737.
With CTGCGCTA the “PBM E-score” value was inactive: -0.201.
With GCCGGAGA the “PBM E-score” value was inactive: -0.163.
In the case of GAATACCC, the “PBM E-score” value is reported as inactive: -0.0908.
With CAGACTCC the “PBM E-score” value was inactive: -0.153.
ACAAGTAA was tested, and the “PBM E-score” value was active: 0.331.
In the case of CGCCAGAC, the “PBM E-score” value is reported as inactive: -0.108.
In the case of CTTTATAC, the “PBM E-score” value is reported as inactive: 0.0943.
In the case of ACACGATC, the “PBM E-score” value is reported as inactive: 0.254.
AGGCTGGA was tested, and the “PBM E-score” value was inactive: -0.16.
In the case of CATCCGCC, the “PBM E-score” value is reported as inactive: -0.0933.
In the case of ACTAATCT, the “PBM E-score” value is reported as inactive: 0.0999.
For CGCGCCCC, the “PBM E-score” value was inactive: -0.346.
ATGACCTA was tested, and the “PBM E-score” value was ≥ 0.11.
In the case of AGATTAGA, the “PBM E-score” value is reported as inactive: 0.115.
In the case of GAGCTGCA, the “PBM E-score” value is reported as inactive: -0.19.
AAGTTCGT was tested, and the “PBM E-score” value was inactive: -0.0542.
For ATGATTCA, the “PBM E-score” value was inactive: 0.0987.
CCGTCATC was tested, and the “PBM E-score” value was inactive: -0.116.
In the case of TCCGAAAA, the “PBM E-score” value is reported as inactive: -0.0323.
With ACTCTCGG the “PBM E-score” value was inactive: -0.12.
ACACCTCA was tested, and the “PBM E-score” value was inactive: 0.12.
ACCGGCTC was tested, and the “PBM E-score” value was inactive: -0.124.
For GACGCACA, the “PBM E-score” value was inactive: -0.0232.
In the case of ATAACTAG, the “PBM E-score” value is reported as inactive: 0.113.
With ACCCTGAG the “PBM E-score” value was inactive: -0.0656.
For CTATGATC, the “PBM E-score” value was inactive: -0.00506.
For GTTCAAAA, the “PBM E-score” value was inactive: 0.0221.
For CCAGGTTA, the “PBM E-score” value was inactive: 0.0134.
With CAAAGACC the “PBM E-score” value was inactive: -0.0627.
With GATGGACA the “PBM E-score” value was inactive: 0.118.
In the case of CACCCATA, the “PBM E-score” value is reported as inactive: -0.00061.
GAATCGGC was tested, and the “PBM E-score” value was inactive: -0.118.
With GTGAGAGA the “PBM E-score” value was inactive: -0.112.
With ACGTGACC the “PBM E-score” value was inactive: -0.0373.
In the case of AGGCACAC, the “PBM E-score” value is reported as inactive: -0.0626.
In the case of GATAAGCA, the “PBM E-score” value is reported as ≥ 0.12.
ACGCAGCA was tested, and the “PBM E-score” value was inactive: -0.06.
AGGGGTGC was tested, and the “PBM E-score” value was inactive: -0.128.
With CATCTGAG the “PBM E-score” value was inactive: 0.0302.
With CACTATCG the “PBM E-score” value was inactive: -0.0391.
In the case of TGATGGCA, the “PBM E-score” value is reported as inactive: -0.0308.
In the case of ATGATTGC, the “PBM E-score” value is reported as inactive: 0.137.
With AGCTTCGG the “PBM E-score” value was inactive: -0.0646.
In the case of CGATACTA, the “PBM E-score” value is reported as inactive: 0.129.
CTTCCGGC was tested, and the “PBM E-score” value was inactive: -0.179.
For CCTCGAGG, the “PBM E-score” value was inactive: -0.116.
In the case of CACTGGCC, the “PBM E-score” value is reported as inactive: -0.105.
For CTCCGCAA, the “PBM E-score” value was inactive: -0.114.
With CCATTAAA the “PBM E-score” value was inactive: 0.0215.
With CGTTTATA the “PBM E-score” value was inactive: 0.00368.
AGAAGATA was tested, and the “PBM E-score” value was ≥ 0.105.
In the case of TCTGTGCA, the “PBM E-score” value is reported as inactive: 0.0826.
For TACCAACA, the “PBM E-score” value was inactive: 0.243.
With TGGAGAAA the “PBM E-score” value was inactive: -0.145.
In the case of GCCTGACA, the “PBM E-score” value is reported as inactive: 0.0595.
In the case of CTATCTAC, the “PBM E-score” value is reported as inactive: 0.196.
